Experimental findings from the supplement of paper PMC11417369 are described below.

± gives the standard deviation of the averaged measurements. This is one part of the list.

This experiment relates to PfAP2-I AP2 domain 3 (GST-tagged). As to the kind of experiment: gcPBM binding intensity (ln(normalized median fluorescence intensity)); higher = stronger DNA binding. In short, it runs like this: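 Binding intensity is defined as the maximum Masliner-normalised natural-log median intensity across replicate spots for either probe orientation. It was measured on an Agilent 4 × 180k array of primer-extended double-stranded 36-bp intergenic genomic probes and negative controls, to which GST-tagged P. falciparum DNA-binding domains made in E. coli were applied for 1 h in 1× PBS with 1% milk, 0.2 mg/ml BSA, 0.5% salmon testes DNA and 0.03% Triton X-100. Detection was by Alexa488 anti-GST antibody and scanning at 488 nm.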
For the sequence “AATACAGTTAGAGAAAGTACACAACTAATATACATA [XGTACX_site8814]”, the “gcPBM binding intensity (ln)” value is 7.86 ± 0.35.

Regarding “TGCTTATATGTTGTTACACACTAAAATAGTTAGATA [CACACA_site1277]”, the “gcPBM binding intensity (ln)” value was determined as 7.94 ± 0.54. The result for “AATATGTGAATATAATCACACACAATACGGAAACAC [CACACA_site8875]” reads 9.015 ± 0.078; that for “AAAGAAGGATAATAATGTACAAGCAAAAAAATAAAA [XGTACX_site466]”, 8.04 ± 0.8. With “CTTTTTTTAATGATAACACACATGTTGTGCATAGAC [CACACA_site3270]”, the “gcPBM binding intensity (ln)” value was determined as 9.63 ± 0.14. The result for “AAATAATTATTTATCACACATATGTATTTATATATA [CACACA_site4589]” reads 7.66 ± 0.43. The result for “ATTCCACCTTAAAACTGTACTTTCTCAATCTTTTAT [XGTACX_site796]” reads 7.86 ± 0.66; that for CATATATAAATATGTATGCACTTTAACAAAATGTAT, 8.89 ± 0.14; that for “ATATTTATTTATATGTGTACTTATGTTTATATAAAA [XGTACX_site4250]”, 8.02 ± 0.21. Regarding “ATAAAGTAGATATTTTGTACGCAGGTTGTATATATT [XGTACX_site1464]”, the “gcPBM binding intensity (ln)” value came to 8.32 ± 0.71.

For the sequence “TACTTTACTAATATATATAGGAGAGTATACATGAAA [CACACA_negctrl_site63]”, the “gcPBM binding intensity (ln)” value worked out at 7.75 ± 0.63. As to “GGAATTATAATAAATGGTACACATAAAAAAAAAAAA [XGTACX_site8343]”, the “gcPBM binding intensity (ln)” value was found to be 8.06 ± 0.54. The figure for “ATTATGTTATATACACGTACGTGTGCTTTATAATTA [XGTACX_site2728]” is 10.2 ± 0.61; for “TAATAAATAGGACACACACACATATATATATATTAT [CACACA_site4891]” it is 8.06 ± 0.3. The result for “TTTCTTTTTTTTTTTTGTACATATTTTAATTATTTT [XGTACX_site8676]” reads 7.75 ± 0.42; that for “TATTATATATATAACTGTACGTTTATAATATAAAAA [XGTACX_site3778]”, 7.75 ± 0.28.

As to “TATTTTAATTAATATACACACGCTTATATATATATA [CACACA_site7909]”, the “gcPBM binding intensity (ln)” value was 8.99 ± 0.54. Take “TACAAACTATGATGCACACATATATATCTGTATCCA [CACACA_site4809]”: the “gcPBM binding intensity (ln)” value was 9.035 ± 0.078. Turning to “AGTGTTAAAAATGAGGGTACATATAAAATACAGTTC [XGTACX_site457]”, the “gcPBM binding intensity (ln)” value amounted to 8.07 ± 0.57. The result for “TAATCATTTTAGCTTACACACAAAATTTGGTTATAA [CACACA_site5604]” reads 7.47 ± 0.54; that for “ACAGGATTGGTTCAAACACACATATTATATGACTAT [CACACA_site4536]”, 7.76 ± 0.68; that for “AGTTTTATATAAGCTTGTACTTAATATTATTAAGTA [XGTACX_site5919]”, 7.71 ± 0.53. Take “AAAAAAAAAAATCGCTGTACTTCTAAAGGTGTGTTA [XGTACX_site843]”: the “gcPBM binding intensity (ln)” value was found to be 7.79 ± 0.3. The figure for “CAAACAAACGGACACACACACACACCCAAAAATGAT [CACACA_site5363]” is 8.06 ± 0.3; for “TTTGATAAATTATACACACACAATATATATAAAATA [CACACA_site2023]” it is 7.72 ± 0.51; for “ACGGACTTAAAATACACACACACCAAAAAAAAAAAA [CACACA_site7304]” it is 8.12 ± 0.63. Consider “AATAATATATAATAATGTACAAAAAAAAAAAAAAAA [XGTACX_site4158]”, for which the “gcPBM binding intensity (ln)” value came to 7.96 ± 0.52. With “AAGCTTTGGTGTTATGCATGCAATTAAACTATTAGT [TGCATGCA_site277]”, the “gcPBM binding intensity (ln)” value turned out to be 8.13 ± 0.81.

With “TTTTATTTTTTAGTAGTACACACTTTTTGTACCTTT [CACACA_site599]”, the “gcPBM binding intensity (ln)” value was found to be 8.3 ± 0.34. The figure for “AAATAATACCAAATGTGTACTTATTTCACTAATAGA [XGTACX_site7571]” is 7.69 ± 0.49. For “ATATATACTTATATTTGTACACAAAGGTATCTCTAG [XGTACX_site3805]”, the “gcPBM binding intensity (ln)” value was 7.74 ± 0.63. On to “GGAATAATAAAATTATGTACATAAGAATCATATACT [XGTACX_site6810]”, for which the “gcPBM binding intensity (ln)” value was found to be 7.69 ± 0.54. In the case of “AAAGATTGCGATGGTTGTACTTTTCTATATTTTTTT [XGTACX_site3492]”, the “gcPBM binding intensity (ln)” value came out at 7.79 ± 0.79. The result for “CTAAAATACGAACACACACACACATATAAATAAATA [CACACA_site7872]” reads 7.82 ± 0.42. For the sequence “TATACTTCTTATTAAATGAGTAGTATATATTATATA [TGCATGCA_negctrl_site299]”, the “gcPBM binding intensity (ln)” value was 7.43 ± 0.18.

In the case of “CTATTTCATAAACACACACACACAAACAAACATATA [CACACA_site8234]”, the “gcPBM binding intensity (ln)” value was 8.03 ± 0.26.

Regarding “AAGTAGTGTTAATACTGTACTTATATTTTTTATTAT [XGTACX_site8264]”, the “gcPBM binding intensity (ln)” value was 7.74 ± 0.18. On to “TTGATATTTTTTTTATGTACACATGTTCATATTTTT [XGTACX_site8095]”, for which the “gcPBM binding intensity (ln)” value came to 7.82 ± 0.49. The figure for “ATTTAAAAAAGAAAGGTGCATTTCAATAATGTAAAA [GTGCAC_site9585]” is 10.5 ± 0.35; for “TCATCTTTTATATGTTGTACGTATTTTCATTTATAT [XGTACX_site4855]” it is 7.96 ± 0.45; for “TCACATATTATCTTTACACACTATAAATAAGTTTTA [CACACA_site7335]” it is 7.88 ± 0.63. In the case of “TTTTTTTCTTTTTGAGGTACGCATTATTTTATTTGT [XGTACX_site6996]”, the “gcPBM binding intensity (ln)” value worked out at 7.71 ± 0.36. The figure for “ATAATTTGATGGTTAACACACATATAGATTATAGAT [CACACA_site7200]” is 7.86 ± 0.64; for “AAAAAAATGAAACACACACACACATATATATATATA [CACACA_site1043]” it is 9.43 ± 0.57. The figure for “AAACAATTACACATATGTATGTATATATATATATAT [TGCATGCA_negctrl_site536]” is 9.12 ± 0.43.
